In all, about 270,000 compounds went through this assay and about 620 (0.23%) were called active. The inconclusive results got no clear call from the source; some entries with a clear call stand among them for comparison. Calls come from the whole dose curve; as a rule, active = well fitted inhibition curve with a large enough effect in the polarisation, with a control signal flat (not every such curve was filed as active); inconclusive = small, poorly fitted or top-dose-only effect, or effect the other way, or a change in a side signal; inactive = no such curve, though single readings can be large or run the other way; the % refers to the polarisation. Where the call is inconclusive, the potency comes from a doubtful curve fit. “Side channel” marks fits to a control or component signal instead of the main read-out.
Biological target: Menin (Homo sapiens) (UniProt O00255)
Sequence of UniProt O00255 (O00255 whole entry, looked up): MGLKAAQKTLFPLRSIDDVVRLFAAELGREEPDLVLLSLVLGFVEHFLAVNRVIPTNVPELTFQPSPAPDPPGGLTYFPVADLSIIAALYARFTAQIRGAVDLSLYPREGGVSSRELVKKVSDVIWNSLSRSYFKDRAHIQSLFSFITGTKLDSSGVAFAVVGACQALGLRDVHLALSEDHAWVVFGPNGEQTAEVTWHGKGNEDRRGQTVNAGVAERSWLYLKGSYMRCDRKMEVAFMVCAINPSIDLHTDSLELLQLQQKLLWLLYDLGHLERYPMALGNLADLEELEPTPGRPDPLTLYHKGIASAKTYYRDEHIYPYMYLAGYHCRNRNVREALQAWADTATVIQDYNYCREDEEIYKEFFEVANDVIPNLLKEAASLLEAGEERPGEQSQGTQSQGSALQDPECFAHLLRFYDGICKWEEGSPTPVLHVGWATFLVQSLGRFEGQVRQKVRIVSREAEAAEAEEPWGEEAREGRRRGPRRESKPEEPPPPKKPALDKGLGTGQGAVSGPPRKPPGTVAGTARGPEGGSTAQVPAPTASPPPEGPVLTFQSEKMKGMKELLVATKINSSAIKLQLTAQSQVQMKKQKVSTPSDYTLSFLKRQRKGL
Test: qHTS Assay for Inhibitors Targeting the Menin-MLL Interaction in MLL Related Leukemias: Competition With Texas Red Labeled MLL-derived Mutant Peptide
Settings: fluorescence polarization; series mostly up to 61.6 µM
Potency is the fitted concentration of half-maximal effect; tags give direction and shape of the fitted curve or compound fluorescence and quenching.

Potency, inconclusive:
CCCCC(=O)Nc1cccc(C(=O)Nc2ccccc2C(=O)O)c1 12.6 µM [quencher, side channel, partial curve]
COc1ccc2cc(/C=N/NC(=O)CN(c3ccccc3C)S(=O)(=O)c3ccccc3)c(Cl)nc2c1 8.91 µM [inhibitor, partial curve]
CC1CN(C(=O)CCC(=O)NCCCN2CCC(Cc3ccccc3)CC2)c2cc(Cl)ccc2O1 (stereo not given) 8.91 µM [fluorescent, side channel, partial curve]
Cn1cccc1-c1cc(C(=O)N/N=C/c2cc(Br)ccc2O)[nH]n1 5.62 µM [quencher, side channel, partial curve]
CCCCC(=O)N1C/C=C\C(c2ccc(OC)cc2)N(Cc2ccc(F)cc2)C(=O)C1Cc1ccccc1 (stereo not given) 39.8 µM [fluorescent, side channel, partial curve, poor fit]
O=C(O)c1ccc(Cl)c(S(=O)(=O)N(Cc2ccccc2)c2ccccc2Cl)c1 12.6 µM [quencher, side channel, partial curve]
CC1CCCN(S(=O)(=O)c2ccc(C(=O)Nc3nnc(-c4ccco4)o3)cc2)C1 (stereo not given) 12.6 µM [quencher, side channel, partial curve]
Cc1ccc(-c2ocnc2C(=O)Nc2nc(C)cs2)cc1 1.26 µM [inhibitor, full curve, poor fit]
Cc1ccc(C(=O)O/N=C/c2c(Cl)n(C)c3ccccc23)cc1 8.91 µM [inhibitor, single point]
CCOc1ccccc1C(=O)Nc1nnc(COC)s1 39.8 µM [inhibitor, single point]
COc1c(OC(C)=O)ccc(/C=C/c2ccc3cccc(OC)c3n2)c1[N+](=O)[O-] 25.1 µM [quencher, partial curve]
Cc1ccc(N(CC(=O)Nc2cccc(C)c2)S(=O)(=O)c2cccc3nonc23)cc1 2.82 µM [quencher, side channel, full curve]
CN(c1ccccc1)c1ccc(/C=C(\CCC(=O)O)c2nc3ccccc3s2)cc1[N+](=O)[O-] 31.6 µM [quencher, side channel, single point]
CC1CCCCC1NC(=O)C1CCN(S(=O)(=O)c2ccc3c(c2)CCC(=O)N3)CC1 (stereo not given) 39.8 µM [fluorescent, side channel, single point]
CCOC(=O)/C=c1\s/c(=C\c2ccc3c(c2)OCCO3)c(=O)n1CC(=O)NCC1CCCO1 (stereo not given) 39.8 µM [inhibitor, single point]
Cc1onc(-c2ccccc2)c1C(=O)Nc1nc(-c2ccc(F)c(F)c2)cs1 39.8 µM [inhibitor, single point]
CC(C)[C@H](N[C@@H](C)c1ccccc1)c1c(O)ccc2ccccc12 10 µM [inhibitor, partial curve]
COc1cc(/C=N/NS(=O)(=O)c2ccccc2)ccc1OS(=O)(=O)c1ccc(C)cc1 25.1 µM [quencher, side channel, single point]
COCCn1c(N)c(C(=O)NS(=O)(=O)c2ccc(C)cc2)c(=O)[nH]c1=O 44.7 µM [inhibitor, partial curve, poor fit]
Cc1cc(=O)n2[nH]c(=O)c(N=Nc3ccccc3)c2[nH]1 17.8 µM [quencher, side channel, single point]
O=C(O)c1ccc(C=C(c2nc3ccccc3s2)c2nc3ccccc3s2)cc1 14.1 µM [quencher, side channel, partial curve]
CCN1/C(=C/c2ccc3cc(C)cc(C)c3[n+]2CC)Sc2cc(C)ccc21 12.6 µM [fluorescent, side channel, partial curve]
O=C(NC(Cc1ccccc1)C(=O)O)c1ccc(S(=O)(=O)N2CCCC2)cc1 (stereo not given) 39.8 µM [inhibitor, single point]
O=C(COC(=O)c1ccc(O)cc1)Nc1ccc(OC(F)F)cc1 35.5 µM [quencher, side channel, single point]
O=C(NCc1ccco1)c1c2c(nc3ccccc13)CCC2 10 µM [quencher, side channel, partial curve]
CCOc1cc(NC(=S)Nc2ccc(Cl)cc2)c(OCC)cc1NC(C)=O 35.5 µM [quencher, side channel, single point]
CCN(CC)C(=S)SCC(=O)Nc1nc(=O)c2ccccc2s1 28.2 µM [inhibitor, single point]
COc1cccc(NC(=O)COC(=O)CCCc2c[nH]c3ccccc23)c1 25.1 µM [quencher, side channel, partial curve]
Nc1ccc2nc(SCC(=O)c3ccccc3)sc2c1 31.6 µM [quencher, side channel, single point]
C=CCc1cccc(CNc2nc3ccccc3n2CC)c1O 14.1 µM [quencher, side channel, partial curve]
COc1cc(C(=O)Nc2ccc(NC(=O)c3ccccc3Cl)nc2)cc(OC)c1OC 17.8 µM [quencher, side channel, single point]
Cc1[nH]n(-c2ccccc2)c(=O)c1C1(C(F)(F)F)C(=O)N(c2ccccc2)C2=C1C(=O)CC(C)(C)C2 (stereo not given) 15.8 µM [quencher, side channel, single point]

Potency, inactive:
Cn1c(=O)c2ccccc2n(Cc2ccccc2F)c1=O
Cc1ccc(C(=O)NC2CCN(CCCC(=O)c3ccc(F)cc3)CC2)cc1
COC(=O)C1=C(C)NC2=C(C(=O)CCC2)C1c1cn(Cc2ccc(Cl)cc2Cl)nc1-c1ccccc1 (stereo not given)

Source: PubChem BioAssay AID1768 (National Center for Advancing Translational Sciences (NCATS), 2009)
